Reference: PubChem BioAssay (Tox21)
Inconclusive results are not listed. Unless noted, calls come from the whole dose curve; as a rule, active = well fitted curve in the direction sought with a large enough effect in the repeat runs; inconclusive = weak or mixed curves; inactive = no such curve, though single readings can be large; an effect the other way counts as inactive or inconclusive. Not every entry of the source has a single result; some have several. This list holds those alone. The source may hold further records. Values that stand side by side are repeated measurements in other runs, samples, wells, individuals or studies. A structure can be active in one record and inactive in another. What stands in brackets tells the records apart. Letters count within one entry.

Key:
[1] = qHTS assay for small molecules that induce genotoxicity in human embryonic kidney cells expressing luciferase-tagged ATAD5 - cell viability (AID 651634; calls by dose curve; note: nearly all actives have a fitted effect of over 25% in size)
Summary of the method: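 After 15.5 hr incubation with compound at 37C, 5% CO2, HEK293T ATAD5-luciferase cells received CellTiter-Fluor reagent; fluorescence intensity was quantified following 30 min at 37C.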

[2] = A CellTox Green Cytotoxicity Assay to monitor cytotoxicity in HEK293 cells - 24 hour (AID 1224875); note: nearly all actives have a fitted effect of over 45% in size
Summary of the method: (§1)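 Dead-cell fluorescence measured kinetically: asymmetric cyanine dye, HEK293, 600 cells/well, 5 h settle, 23 nL cpd/DMSO, 37 C, reads 0–40 h every 8 h.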

[3] = A CellTox Green Cytotoxicity Assay to monitor cytotoxicity in HEK293 cells - 16 hour (AID 1224888); note: nearly all actives have a fitted effect of over 35% in size
Summary of the method: as §1

[4] = qHTS assay to identify small molecule antagonists of the constitutive androstane receptor (CAR) signaling pathway - cell viability counter screen (AID 1224837); note: nearly all actives have a fitted effect of over 45% in size
Summary of the method: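 Cells are seeded, rested 4 hr at 37 C/5% CO2, dosed with compound (15-point series) and 50 nM CITCO, incubated a further 23 hr, and then CellTiter-Fluor reagent is added before fluorescence is read. The line is HepG2 with stable hCAR and CYP2B6-2.2kb.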

[5] = qHTS assay to identify small molecule antagonists of the androgen receptor (AR) signaling pathway using the MDA cell line - cell viability counter screen (AID 743041; note: nearly all actives have a fitted effect of over 45% in size)
Summary of the method: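 Compound exposure lasted 16 h at 37C in MDA-kb2 AR-luc cells stimulated with R1881. Protease-based CellTiter-Fluor reagent was applied for the final 30 min and fluorescence measured.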

[6] = qHTS assay to identify small molecule antagonists of the thyroid receptor (TR) signaling pathway (AID 743065); note: nearly all actives have a fitted effect of over 55% in size
Summary of the method: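 GH3.TRE-Luc rat pituitary cells (two TREs driving luciferase) were dosed with compound, then stimulated with 1 nM T3 (final) for 23.5 h at 37 C. ONE-Glo luminescence was the read-out, with CellTiter-Fluor fluorescence as the cytotoxicity counter-screen.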

[7] = qHTS assay to identify small molecule agonists of the sonic hedgehog signaling (Shh) pathway (AID 1259368; calls by dose curve; note: nearly all actives have a fitted effect of over 15% in size)
Summary of the method: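 Quantitative high-throughput format using a Gli1-driven firefly luciferase reporter line derived from NIH/3T3 cells. After a 24 hr compound treatment at 37 C and 5% CO2, luminescence reported Gli1 response element activity.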

[8] = qHTS assay for small molecule agonists of the p53 signaling pathway - cell viability (AID 651633; calls by dose curve; note: nearly all actives have a fitted effect of over 30% in size); conditions: p53RE-bla HCT-116 viability, ATP luminescence, 16 h
Summary of the method: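 p53RE-bla cells were treated with compound for 16 hours at 37 C. Cytotoxicity was then measured as CellTiter-Glo luminescence after 30 min at room temperature.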

[9] = qHTS assay for identifying genotoxic compounds that show differential cytotoxicity against isogenic chicken DT40 cell lines with known DNA damage response pathways - wild type cell line (AID 743012); conditions: DT40 wild type chicken cells viability, CellTiter-Glo, 40 h; note: nearly all actives have a fitted effect of over 60% in size
Summary of the method: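 Luminescent ATP viability signal (CellTiter-Glo, 30 min RT) recorded after wild type DT40 cells were incubated with compounds for 40 h at 37 C/5% CO2.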

[10] = qHTS assay to identify small molecule agonists of the constitutive androstane receptor (CAR) signaling pathway - cell viability counter screen (AID 1224836); note: nearly all actives have a fitted effect of over 45% in size
Summary of the method: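 23 h treatment, 37 C, 5% CO2. Cell line: HepG2 stably expressing hCAR with a CYP2B6-2.2kb construct. Co-treatment: PK11195, 0.75 uM final. Read-out: CellTiter-Fluor fluorescence intensity.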

[11] = qHTS assay to identify small molecule antagonists of the estrogen receptor alpha (ER-alpha) signaling pathway using the BG1 cell line in the presence of 0.1 nM 17-beta-estradiol - cell viability counter screen (AID 1259241); note: nearly all actives have a fitted effect of over 40% in size
Summary of the method: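 In this screen, hormone-deprived VM7Luc4E2 cells were seeded at 4,000 per well, dosed with compound and 0.1 nM estradiol final, and incubated 22 hr at 37C and 5% CO2; fluorogenic live-cell protease signal reported viability.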

[12] = qHTS assay to identify small molecule antagonists of the progesterone receptor (PR) signaling pathway - cell viability counter screen (AID 1346798); note: nearly all actives have a fitted effect of over 50% in size
Summary of the method: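 In the same plates used for the beta-lactamase readout, cell viability of compound- and R5020-treated PR-UAS-bla HEK293T cells (16 hr, 37C) was assessed by CellTiter-Glo luminescence.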

[13] = qHTS assay to identify small molecule antagonists of the glucocorticoid receptor (GR) signaling pathway - cell viability counter screen (AID 720693); note: nearly all actives have a fitted effect of over 55% in size
[14] = qHTS assay to identify small molecule agonists or antagonists of the thyroid stimulating hormone receptor (TSHR) signaling pathway - wild type cell line counter screen (AID 1259384; calls by dose curve)
Summary of the method: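 Wild-type Hek293 cells, 800/well, 18 h at 37C, then compound with Ro20-1724 for 30 min RT. cAMP by HTRF (cAMP-d2/anti-cAMP cryptate), 1 h RT, fluorescence read. 15 concentrations, triplicates.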

[15] = qHTS assay to identify small molecule antagonists of the thyroid receptor (TR) signaling pathway - cell viability counter screen (AID 743064); conditions: GH3.TRE-Luc viability, CellTiter-Fluor, 24 h; note: nearly all actives have a fitted effect of over 50% in size
Summary of the method: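 CellTiter-Fluor readout, 30 min at 37 °C/5% CO2, following 23.5 h incubation of GH3.TRE-Luc cells with test compound and 1 nM T3 (final).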

[16] = qHTS assay to identify small molecule antagonists of the peroxisome proliferator-activated receptor gamma (PPARg) signaling pathway - cell viability counter screen (AID 743194); note: nearly all actives have a fitted effect of over 55% in size
Summary of the method: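 Cytotoxicity counter screen in PPARg-bla HEK293H cells, same wells as reporter assay. Compounds plus 50 nM rosiglitazone (final) for 17 h at 37 C, then viability read by CellTiter-Glo luminescence.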
Potency is the fitted concentration of half-maximal effect.

CCN(CC)C(=S)SSC(=S)N(CC)CC
Potency [1]: inactive [sample A] and active: 4.86 µM [sample B] | Potency [2]: active: 224 nM [sample A] and inactive [sample B] | Potency [3]: inactive [sample A] and active: 56.2 µM [sample B] and inactive [sample C]

CCCCCCCCCCCCc1ccccc1O
Potency [4]: inactive [sample A] and active: 61.1 µM [sample B]

Cc1c2oc3c(C)ccc(C(=O)N[C@@H]4C(=O)N[C@H](C(C)C)C(=O)N5CCC[C@H]5C(=O)N(C)CC(=O)N(C)[C@@H](C(C)C)C(=O)O[C@@H]4C)c3nc-2c(C(=O)N[C@@H]2C(=O)N[C@H](C(C)C)C(=O)N3CCC[C@H]3C(=O)N(C)CC(=O)N(C)[C@@H](C(C)C)C(=O)O[C@@H]2C)c(N)c1=O
Potency [5]: inactive [sample A] and active: 26.6 µM [sample B]

Oc1c(Cl)cc(Cl)cc1Sc1cc(Cl)cc(Cl)c1O
Potency [2]: active: 43.8 µM [sample A] and active: 43.6 µM [sample B] and inactive [sample C] | Potency [3]: active: 43.6 µM [sample A] and inactive [sample B]

CCC(C)(C)C(=O)O[C@H]1C[C@@H](C)C=C2C=C[C@H](C)[C@H](CC[C@@H]3C[C@@H](O)CC(=O)O3)[C@H]21
Potency [6]: inactive [sample A] and active: 38.6 µM [sample B]

O=C(O[C@@H]1Cc2c(O)cc(O)cc2O[C@@H]1c1cc(O)c(O)c(O)c1)c1cc(O)c(O)c(O)c1
Potency [1]: active: 61.3 µM [sample A] and inactive [sample B]

CCc1cc(C(C)(C)C)c(O)c(C(C)(C)C)c1
Potency [1]: active: 43.7 µM [sample A] and inactive [sample B] | Potency [3]: inactive [sample A] and active: 21.9 µM [sample B]

NNCCc1ccccc1
Potency [7]: active: 21.8 µM [sample A] and inactive [sample B]

CC(=O)C1=C(C)[C@@H]2C[C@@]3(C1)[C@H](C)CC[C@H]3C2(C)C
Potency [6]: active: 80.4 µM [sample A] and inactive [sample B]

Nc1nc(=S)c2[nH]cnc2[nH]1
Potency [8]: active: 2.37 µM, 1.88 µM, 750 nM, 545 nM [separate samples] | Potency [1]: active: 13.3 µM [sample A] and inactive [sample B] | Potency [9]: active: 1.68, 1.19, 4.73, 2.17 µM [separate samples]

Nc1ccc(O)cc1
Potency [10]: active: 28.4 µM [sample A] and inactive [sample B] | Potency [4]: active: 28.4 µM [sample A] and inactive [sample B] | Potency [11]: active: 28.4 µM [sample A] and inactive [sample B]

Cc1cc(Cc2cc(C)cc(C(C)(C)C)c2O)c(O)c(C(C)(C)C)c1
Potency [5]: inactive [sample A] and active: 61.1 µM [sample B] | Potency [4]: active: 61.4 µM [sample A] and inactive [sample B]

Nc1ccc2cc3ccccc3cc2c1
Potency [7]: active: 9.86 µM [sample A] and inactive [sample B]

Oc1c(Cl)cc(Cl)c(Cl)c1Cc1c(O)c(Cl)cc(Cl)c1Cl
Potency [2]: active: 48.9 µM [sample A] and active: 49 µM [sample B] and inactive [sample C] | Potency [11]: inactive [sample A] and inactive [sample B] and active: 18.8 µM [sample C]

CCCCCCC(O)CCCCCCCCCCC(=O)O (stereo unspecified)
Potency [12]: inactive [sample A] and active: 27.3 µM [sample B]

CC1=CC(=O)c2ccccc2C1=O
Potency [13]: inactive [sample A] and active: 54.9 µM [sample B] | Potency [5]: inactive [sample A] and active: 48.6 µM [sample B]

CCCCCC(=O)O[C@]1(C(C)=O)CC[C@H]2[C@@H]3CCC4=CC(=O)CC[C@]4(C)[C@H]3CC[C@@]21C
Potency [10]: active: 38.3 µM [sample A] and inactive [sample B]

CC(=O)OCCOCCOCCOC(C)=O
Potency [14]: active: 569 nM [sample A] and inactive [sample B]

CCCCC(CC)COC(=O)CC(C(=O)OCC(CC)CCCC)S(=O)(=O)O (stereo unspecified)
Potency [15]: active: 26.6, 18.8, 58.8, 61.1 µM [separate samples] | Potency [6]: active: 18.8, 16.8, 58.8, 54.5 µM [separate samples] | Potency [12]: inactive [sample A] and active: 30.6 µM [sample B]

O=C1CC2(CCCC2)CC(=O)N1CCCCN1CCN(c2ncccn2)CC1
Potency [6]: inactive [sample A] and active: 48.6 µM [sample B]

CCCCCCCCCCCC[N+](C)(C)C
Potency [5]: inactive [sample A] and active: 13.7 µM [sample B] | Potency [16]: inactive [sample A] and active: 6.16 µM [sample B]

Cc1cc(OCCOCC[N+](C)(C)Cc2ccccc2)ccc1C(C)(C)CC(C)(C)C
Potency [10]: active: 60.8 µM [sample A] and inactive [sample B] | Potency [4]: active: 60.8 µM [sample A] and inactive [sample B]

CC(C)(C)NC(=O)[C@@H]1CN(Cc2cccnc2)CCN1C[C@@H](O)C[C@@H](Cc1ccccc1)C(=O)N[C@H]1c2ccccc2C[C@H]1O
Potency [1]: active: 29.8 µM [sample A] and inactive [sample B] | Potency [6]: active: 26.6 µM [sample A] and inactive [sample B]

COC(=O)c1cccc(C(=O)OC)c1
Potency [2]: inactive [sample A] and active: 43.6 µM [sample B] | Potency [3]: inactive [sample A] and active: 43.6 µM [sample B]

O=S(=O)(O)c1ccc2nc(-c3ccccc3)[nH]c2c1
Potency [12]: active: 26 µM [sample A] and inactive [sample B]

CN(C)c1ccc(C(=C2C=CC(=[N+](C)C)C=C2)c2ccccc2)cc1
Potency [1]: inactive [sample A] and active: 2.17 µM [sample B] | Potency [5]: inactive [sample A] and active: 4.33 µM [sample B]

Cc1ccc(-c2cc(C(F)(F)F)nn2-c2ccc(S(N)(=O)=O)cc2)cc1
Potency [13]: inactive [sample A] and active: 54.7 µM [sample B] | Potency [10]: active: 48.4 µM [sample A] and inactive [sample B] | Potency [4]: active: 61.1 µM [sample A] and inactive [sample B]

CCC(=O)/C=C/C1C(C)=CCCC1(C)C (stereo unspecified)
Potency [2]: active: 49.1 µM [sample A] and inactive [sample B] | Potency [3]: active: 39 µM [sample A] and inactive [sample B]

CC(=O)Nc1ccc(C(=O)CCl)cc1
Potency [1]: inactive [sample A] and active: 61.1 µM [sample B] | Potency [6]: inactive [sample A] and active: 6.86 µM [sample B] | Potency [2]: inactive [sample A] and active: 17.4 µM [sample B]

COC(=O)/C=C/c1ccccc1
Potency [2]: inactive [sample A] and active: 21.9 µM [sample B] | Potency [3]: inactive [sample A] and active: 21.9 µM [sample B]

CC(C)CCCCCCc1ccc(O)cc1
Potency [1]: inactive [sample A] and active: 62.2 µM [sample B] and inactive [sample C] | Potency [16]: active: 22.3 µM [sample A] and inactive [sample B] | Potency [10]: active: 6.22 µM [sample A] and inactive [sample B] | Potency [4]: active: 6.98 µM [sample A] and inactive [sample B] | Potency [11]: active: 15.6 µM [sample A] and inactive [sample B]

COc1ccc(CCN2CCC(Nc3nc4ccccc4n3Cc3ccc(F)cc3)CC2)cc1
Potency [13]: inactive [sample A] and active: 17.8 µM [sample B]

Clc1ccc2c(c1)C(N1CCNCC1)=Nc1ccccc1O2
Potency [16]: active: 54.9 µM [sample A] and inactive [sample B]
